These results are taken from the supplement of paper PMC12217912.

This is one part of the list. Sequences were assembled here from the parent chain. Inactive controls read about 0.05.

The chains are these.
B1: TEV protease; numbered along this chain (parent)
chain: MGESLFKGPRDYNPISSSICHLTNESDGHTTSLYGIGFGPFIITNKHLFRRNNGTLVVQSLHGVFKVKDTTTLQQHLVDGRDMIIIRMPKDFPPFPQKLKFREPQREERICLVTTNFQTKSMSSMVSDTSCTFPSGDGIFWKHWIQTKDGQCGSPLVSTRDGFIVGIHSASNFTNTNNYFTSVPKNFMELLTNQEAQQWVSGWRLNADSVLWGGHKVFMVKPEEPFQPVKEATQL

Variants of B1 are the subject of the experiment. Kind of experiment: raw area under fraction-flipped curve 0-4 h after induction (AUC4h, not background-subtracted), DNA-recorder readout of cleavage of the substrate (dimensionless); higher = more cleavage of the substrate by the protease variant. As to conditions: temperature: 34 °C; time window: 0-4 h after rhamnose induction. How it is done:
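In vivo DNA recorder in E. coli TOP10(DE3) ΔrhaA at 34 °C. Each TEVp single-site mutant (parent TEVp 0) is paired with a single-site variant of the 7-mer TEVs (canonical ENLYFQ|S). The substrate sits between flexible linkers in a Bxb1-sfGFP-TEVs-SsrA fusion, so cleavage stabilises Bxb1 and speeds flipping of a recombination array, read by NGS. The value is the raw area under the fraction-flipped curve over 0-4 h after rhamnose induction (AUC4h), with ≥20 reads per time point. It is not background-subtracted; inactive controls average about 0.047.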
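Also: Bxb1 expression induced with 0.2% (w/v) L-rhamnose at OD600 near 0.5, cultures sampled hourly, flipped fraction per protease–substrate barcode pair counted by paired-end Illumina sequencing.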

Consider MGESLFKGPRDYNPISSSICHLTNESDGHTTSLYGIGFGPFIITNKHLFRRNNGTLVVQSLHGVFKVKDTTTLQQHLVDGRDMIIIRMPKDFPPFPQKLKFREPQREERICLVTTNFQTKSMSSMVSDTSCTFPSGDGIFWKHWIQTKDGQCGSPLVSTRDGFIVGIHSASNFTNTNNYFTSVPKNFRELLTNQEAQQWVSGWRLNADSVLWGGHKVFMVKPEEPFQPVKEATQL [M188R], for which the “area with substrate ENLYAQS” value was 0.0702, the “area with substrate ENLYDQS” value is 0.0591, the “area with substrate ENLYEQS” value amounted to 0.0663 and the “area with substrate ENLYGQS” value came out at 0.0459. The “area with substrate ENLYHQS” value worked out at 0.0655, the “area with substrate ENLYIQS” value is 0.137, the “area with substrate ENLYKQS” value was 0.0661 and the “area with substrate ENLYNQS” value worked out at 0.0658. The “area with substrate ENLYPQS” value was 0.0701, the “area with substrate ENLYQQS” value was found to be 0.063, the “area with substrate ENLYSQS” value was determined as 0.0748 and the “area with substrate ENLYVQS” value worked out at 0.119. Besides, the “area with substrate ENLYYQS” value turned out to be 0.0643.

With MGESLFKGPRDYNPISSSICHLTNESDGHTTSLYGIGFGPFIITNKHLFRRNNGTLVVQSLHGVFKVKDTTTLQQHLVDGRDMIIIRMPKDFPPFPQKLKFREPQREERICLVTTNFQTKSMSSMVSDTSCTFPSGDGIFWKHWIQTKDGQCGSPLVSTRDGFIVGIHSASNFTNTNNYFTSVPKNFMELLTNQEAQQWVSGPRLNADSVLWGGHKVFMVKPEEPFQPVKEATQL [W203P], the “area with substrate ENLYAQS” value was 0.0432, the “area with substrate ENLYDQS” value was 0.0568, the “area with substrate ENLYEQS” value stood at 0.0785 and the “area with substrate ENLYHQS” value amounted to 0.0589. In addition, the “area with substrate ENLYKQS” value worked out at 0.0682, the “area with substrate ENLYMQS” value stood at 0.0764, the “area with substrate ENLYNQS” value was 0.062 and the “area with substrate ENLYPQS” value was found to be 0.0611. For the same variant, the “area with substrate ENLYVQS” value was determined as 0.079.

Turning to MGESLFKGPRDYNPISSSICHLTNESDGHTTSLYGIGFGPFIITNKHLFRRNNGTLVVQSLHGVFKVKDTTTLQQHLVDGRDMIIIRMPKDFPPFPQKLKFREPQREERICLVTTNFQTKSMSSMVSDTSCTFPSGDGIFWKHWIQTKDGQCGSPLVSTRDGFIVGIHSASNFTNTNNYHTSVPKNFMELLTNQEAQQWVSGWRLNADSVLWGGHKVFMVKPEEPFQPVKEATQL [F180H], the “area with substrate ENLYAQS” value was 0.0732, the “area with substrate ENLYEQS” value came out at 0.0858, the “area with substrate ENLYHQS” value turned out to be 0.0673 and the “area with substrate ENLYNQS” value stood at 0.0629. Besides, the “area with substrate ENLYQQS” value was found to be 0.0782.

As for MGESLFKGPRDYNPISSSICHLTNESDGHTTSLYGIGFGPFIITNKHLFRRNNGTLVVQSLHGVFKVKDTTTLQQHLVDGRDMIIIRMPKDFPPFPQKLKFREPQREERICLVTTNFQTKSMSSMVSDTSCTFPSGDGIFWKHWIQTKDGQCGSPLVSTRDGFIVGIHSASNFTNTNNYFTSVPKNFMLLLTNQEAQQWVSGWRLNADSVLWGGHKVFMVKPEEPFQPVKEATQL [E189L], the “area with substrate ENLYAQS” value amounted to 0.0628, the “area with substrate ENLYEQS” value came to 0.0678, the “area with substrate ENLYHQS” value amounted to 0.0602 and the “area with substrate ENLYKQS” value stood at 0.067. Also, the “area with substrate ENLYLQS” value came to 0.0824, the “area with substrate ENLYMQS” value is 0.0772, the “area with substrate ENLYNQS” value came to 0.0599 and the “area with substrate ENLYPQS” value came out at 0.0674. The “area with substrate ENLYQQS” value turned out to be 0.0577, the “area with substrate ENLYSQS” value is 0.0601, the “area with substrate ENLYTQS” value is 0.0442 and the “area with substrate ENLYVQS” value turned out to be 0.128. In addition, the “area with substrate ENLYWQS” value was 0.0778 and the “area with substrate ENLYYQS” value is 0.0626.

Take MGESLFKGPRDYNPISSSICHLTNESDGHTTSLYGIGFGPFIITNKHLFRRNNGTLVVQSLHGVFKVKDTTTLQQHLVDGRDMIIIRMPKDFPPFPQKLKFREPQREERICLVTTNFQTKSMSSMVSDTSCTFPSGDGIFWKHWIQTKDGQCGSPLVSTRDGFIVGIHSASNFTNTNNYFTSVPKNFMELLTNQEAQQYVSGWRLNADSVLWGGHKVFMVKPEEPFQPVKEATQL [W199Y]: the “area with substrate ENLYAQS” value worked out at 0.0781, the “area with substrate ENLYDQS” value is 0.031, the “area with substrate ENLYHQS” value came to 0.051 and the “area with substrate ENLYKQS” value worked out at 0.0573. The “area with substrate ENLYMQS” value worked out at 0.0653 and the “area with substrate ENLYNQS” value is 0.0551.

In the case of MGESLFKGPRDYNPISSSICHLTNESDGHTTSLYGIGFGPFIITNKHLFRRNNGTLVVQSLHGVFKVKDTTTLQQHLVDGRDMIIIRMPKDFPPFPQKLKFREPQREERICLVTTNFQTKSMSSMVSDTSCTFPSGDGIFWKHWIQTKDGQCGSPLVSTRDGFIVGIHSASNFTNTNNYFTSVPKNFMELLTNQEAQQWVSGWRYNADSVLWGGHKVFMVKPEEPFQPVKEATQL [L205Y], the “area with substrate ENLYAQS” value is 0.0673, the “area with substrate ENLYDQS” value amounted to 0.0456, the “area with substrate ENLYEQS” value was determined as 0.0775 and the “area with substrate ENLYIQS” value was determined as 0.0734. Further, the “area with substrate ENLYMQS” value is 0.0634, the “area with substrate ENLYNQS” value came out at 0.0574, the “area with substrate ENLYQQS” value is 0.0697 and the “area with substrate ENLYRQS” value worked out at 0.0625. For the same variant, the “area with substrate ENLYSQS” value came to 0.0611, the “area with substrate ENLYTQS” value was determined as 0.0702, the “area with substrate ENLYWQS” value came out at 0.0694 and the “area with substrate ENLYYQS” value was determined as 0.0705.

Turning to MGESLFKGPRDYNPISSSICHLTNESDGHTTSLYGIGFGPFIITNKHLFRRNNGTLVVQSLHGVFKVKDTTTLQQHLVDGRDMIIIRMPKDFPPFPQKLKFREPQREERICLVTTNFQTKSMSSMVSDTSCTFPSGDGIFWKHWIQTKDGQCGSPLVSTRDGFIVGIHSASNFTNTNNYFTSVPKNFMEPLTNQEAQQWVSGWRLNADSVLWGGHKVFMVKPEEPFQPVKEATQL [L190P], the “area with substrate ENLYAQS” value was 0.0763, the “area with substrate ENLYEQS” value is 0.0676, the “area with substrate ENLYGQS” value worked out at 0.0707 and the “area with substrate ENLYHQS” value was 0.0532. For the same variant, the “area with substrate ENLYKQS” value came to 0.0666, the “area with substrate ENLYLQS” value worked out at 0.0682, the “area with substrate ENLYPQS” value came to 0.068 and the “area with substrate ENLYQQS” value worked out at 0.0621. The “area with substrate ENLYRQS” value is 0.0396, the “area with substrate ENLYSQS” value turned out to be 0.0638, the “area with substrate ENLYVQS” value came to 0.108 and the “area with substrate ENLYYQS” value was found to be 0.0576.

On to MGESLFKGPRDYNPISSSICHLTNESDGHTTSLYGIGFGPFIITNKHLFRRNNGTLVVQSLHGVFKVKDTTTLQQHLVDGRDMIIIRMPKDFPPFPQKLKFREPQREERICLVTTNFQTKSMSSMVSDTSCTFPSGDGIFWKHWIQTKDGQCGSPLVSTRDGFIVGIHSASNFTNTNNYFTSVPKFFMELLTNQEAQQWVSGWRLNADSVLWGGHKVFMVKPEEPFQPVKEATQL [N186F], for which the “area with substrate ENLYAQS” value came out at 0.07, the “area with substrate ENLYNQS” value came out at 0.0926, the “area with substrate ENLYRQS” value turned out to be 0.0424 and the “area with substrate ENLYVQS” value is 0.139.

In the case of MGESLFKGPRDYNPISSSICHLTNESDGHTTSLYGIGFGPFIITNKHLFRRNNGTLVVQSLHGVFKVKDTTTLQQHLVDGRDMIIIRMPKDFPPFPQKLKFREPQREERICLVTTNFQTKSMSSMVSDTSCTFPSGDGIFWKHWIQTKDGQCGSPLVSTRDGFIVGIHSASNFTNTNCYFTSVPKNFMELLTNQEAQQWVSGWRLNADSVLWGGHKVFMVKPEEPFQPVKEATQL [N178C], the “area with substrate ENLYAQS” value turned out to be 0.0679, the “area with substrate ENLYEQS” value amounted to 0.0586 and the “area with substrate ENLYHQS” value was 0.068.

Consider MGESLFKGPRDYNPISSSICHLTNESDGHTTSLYGIGFGPFIITNKHLFRRNNGTLVVQSLHGVFKVKDTTTLQQHLVDGRDMIIIRMPKDFPPFPQKLKFREPQREERICLVTTNFQTKSMSSMVSDTSCTFPSGDGIFWKHWIQTKDGQCGSPLVSTRDGFIVGIHSASNFTNTNNYFTSVPKNFMELLTNQEAQQWVEGWRLNADSVLWGGHKVFMVKPEEPFQPVKEATQL [S201E], for which the “area with substrate ENLYAQS” value was found to be 0.0762, the “area with substrate ENLYDQS” value worked out at 0.0592, the “area with substrate ENLYEQS” value was determined as 0.0674 and the “area with substrate ENLYHQS” value was 0.0669. Further, the “area with substrate ENLYIQS” value worked out at 0.0958, the “area with substrate ENLYMQS” value was found to be 0.0665, the “area with substrate ENLYPQS” value was 0.1 and the “area with substrate ENLYQQS” value amounted to 0.0571. Moreover, the “area with substrate ENLYRQS” value worked out at 0.0623, the “area with substrate ENLYVQS” value is 0.0996, the “area with substrate ENLYWQS” value turned out to be 0.077 and the “area with substrate ENLYYQS” value was found to be 0.0838.

With MGESLFKGPRDYNPISSSICHLTNESDGHTTSLYGIGFGPFIITNKHLFRRNNGTLVVQSLHGVFKVKDTTTLQQHLVDGRDMIIIRMPKDFPPFPQKLKFREPQREERICLVTTNFQTKSMSSMVSDTSCTFPSGDGIFWKHWIQTKDGQCGSPLVSTRDGFIVGIHSASNFTNTNNYFTSVPKNFMELLTNQEAQQWVCGWRLNADSVLWGGHKVFMVKPEEPFQPVKEATQL [S201C], the “area with substrate ENLYAQS” value was 0.0744, the “area with substrate ENLYEQS” value stood at 0.0737, the “area with substrate ENLYGQS” value worked out at 0.0765 and the “area with substrate ENLYIQS” value was 0.105. The “area with substrate ENLYRQS” value amounted to 0.0742, the “area with substrate ENLYVQS” value was 0.111 and the “area with substrate ENLYYQS” value amounted to 0.0587.
